Among all 150,000 compounds or so, about 540 (0.36%) showed an effect of 50% or more. The list shows a part of the results.

The experiment deals with Plasmodium falciparum. Briefly: Primary screen in NF54 nanoGlo assay, in single point, at 2uM, 72h; a lower Z score goes with more inhibition. Type of experiment: functional, Erythrocyte. The conditions noted are these: timepoint 72 hour.
One may read the % Inhibition as the change of the read-out against control, counted positive when it falls. With `CCCCn1c(N)c(N(C(=O)Cc2c(Cl)cccc2Cl)C2CCCC2)c(=O)[nH]c1=O`, the “% Inhibition” value is reported as -1% and the Z score is recorded as 0.1.

On to `Cc1nc(C(=O)NC2(c3noc([C@H]4CCOC4)n3)CCCCCC2)c[nH]1`, for which the “% Inhibition” value is -9% and the Z score stood at 0.88.

Regarding `CCCC1CCC(OC(=O)c2ccc(C(=O)OC3CCC(CCC)CC3)nc2)CC1` (centres undefined), the “% Inhibition” value is recorded as 74% and the Z score is -10.02.

Turning to `CCCCCc1ccc(C(=O)N2CCCN(c3nc4ccccc4nc3-c3ccccc3)CC2)cc1`, the “% Inhibition” value is recorded as -7% and the Z score stood at 0.67.

For the compound `COc1cccc(CN2C[C@@H]3Oc4ncccc4C(=O)N(C)[C@@H]3C2)c1`, the “% Inhibition” value turned out to be 0% and the Z score is reported as 0.

As to `COc1nc2c(cc1CNc1cc(C(C)C)nc(C)n1)C(=O)N(C1CCCC1)C2`, the “% Inhibition” value is given as -13% and the Z score is 1.78.

With `NC(=O)[C@@H]1COCCN1Cc1csc(-c2ccccn2)n1`, the “% Inhibition” value was -12% and the Z score amounted to 2.14.

Consider `CCn1ncnc1CN1CC[C@H](CNC(=O)C2CCCCC2)C1`, for which the “% Inhibition” value is -14% and the Z score amounted to 1.82.

`O=C(NCc1nccnc1-c1ccsc1)c1cscn1`: the “% Inhibition” value is on record as 7% and the Z score is recorded as -0.87.

With `C[C@H]1CCC(C)(C)N1C(=O)c1ccnc(N(C)C)c1`, the “% Inhibition” value was 29% and the Z score is -3.31.

Consider `Cc1cccc2ncnc(N(C)C3CC[S+]([O-])CC3)c12` (centres undefined), for which the “% Inhibition” value came out at 3% and the Z score is -0.52.

Consider `O=C(NCc1nc(-c2ccco2)n[nH]1)c1c[nH]nc1-c1ccccc1`, for which the “% Inhibition” value is reported as -16% and the Z score was 3.04.

For `Cc1ccc(C(=O)c2ccccc2C(=O)NCCN2CCOCC2)cc1C`, the “% Inhibition” value is -6% and the Z score stood at 0.86.

For the compound `O=C(Cc1n[nH]c(=O)c2ccccc12)Nc1ccc(OC2CCCC2)c(Cl)c1`, the “% Inhibition” value is on record as -4% and the Z score is recorded as 0.56.

On to `CC(=O)Nc1ccc([C@H]2NC(=O)c3ccccc3O2)cc1`, for which the “% Inhibition” value is listed as -1% and the Z score is reported as 0.16.

On to `C[C@@H](CS(C)(=O)=O)NC(=O)C1CCCCCC1`, for which the “% Inhibition” value is -9% and the Z score came to 1.18.

Regarding `CCCN1C[C@@H](CNC(=O)c2nc(C)[nH]c2C)CC1=O`, the “% Inhibition” value came out at 4% and the Z score is given as -0.52.

In the case of `O=S1(=O)CCN(Cc2ccccn2)CC1`, the “% Inhibition” value turned out to be 30% and the Z score is recorded as -3.93.

As to `Cc1nc(C(C)C)oc1C(=O)N1CCOCc2ccccc21`, the “% Inhibition” value came to 8% and the Z score was -1.01.

Regarding `c1ccc(C(OCCNC2=NCCN2)c2ccccc2)cc1`, the “% Inhibition” value is -28% and the Z score is recorded as 3.26.

Turning to `C[C@@H]1CN(C(=O)c2coc(COc3cccc(F)c3)n2)C[C@H](C)O1`, the “% Inhibition” value was -8% and the Z score is 1.06.

Take `COc1cc(NC(=O)c2ccc(-c3ccccc3)cc2)c(OC)cc1NC(=O)c1ccccc1`: the “% Inhibition” value came out at 6% and the Z score is -0.73.

As for `Cc1onc(C2CC2)c1C(=O)N1C[C@@H](C)N(CCO)[C@@H](C)C1`, the “% Inhibition” value was 3% and the Z score is listed as -0.38.

With `CCc1[nH]ccc1C(=O)N[C@H](c1cccs1)C1(CO)CCC1`, the “% Inhibition” value is given as -14% and the Z score was determined as 1.73.

Turning to `COCCOc1ccc(C(=O)N[C@@H]2CN(C(=O)Nc3ccccc3C(=O)OC)CCC[C@H]2O)cc1`, the “% Inhibition” value came out at 24% and the Z score is listed as -2.67.

With `CC(C)[C@@H](C(=O)N1CC2(CNC(=O)O2)C1)c1cccc(Cl)c1`, the “% Inhibition” value is -9% and the Z score worked out at 1.17.

On to `O=C1CN(c2ccc(CNC(=O)c3ccc(Br)cc3)cc2)CCN1`, for which the “% Inhibition” value is given as -8% and the Z score was determined as 1.5.

Regarding `O=C(O)Cc1ccccc1NC(=O)c1cc2c(s1)CCOC2`, the “% Inhibition” value is -6% and the Z score turned out to be 0.99.

On to `CCC1=NO[C@@H](CN(C)CCc2ccccn2)C1`, for which the “% Inhibition” value was -1% and the Z score is reported as 0.12.

In the case of `CN(c1ccc(Cl)c(C(=O)Nc2cccnc2)c1)S(C)(=O)=O`, the “% Inhibition” value is -2% and the Z score was found to be 0.31.

On to `C[C@]1(F)CCCN(c2nnc(Cc3ccccc3)o2)C1`, for which the “% Inhibition” value was -4% and the Z score amounted to 0.72.

On to `Cc1ccnc(N2CC[C@H]3[C@H](CCC(=O)N3CCCn3ccnc3)C2)n1`, for which the “% Inhibition” value is 3% and the Z score was -0.49.

Turning to `O[C@H](COc1ccccc1-c1ccc(Cl)c(F)c1)CN1CCOCC1`, the “% Inhibition” value is reported as -10% and the Z score stood at 1.67.

For `CN(C)c1ccccc1NC(=O)N[C@H]1CCS(=O)(=O)C1`, the “% Inhibition” value is -11% and the Z score came to 1.66.

As for `O=C(NCCOc1cccnc1)c1ncccc1Br`, the “% Inhibition” value is recorded as -19% and the Z score amounted to 1.69.

`C[C@@H](CCc1ccccc1)NC(=O)c1cnn2c(-c3ccc(Cl)s3)ccnc12`: the “% Inhibition” value is -1% and the Z score is listed as 0.13.

Consider `CCc1nnc(NCC2(N(C)C)CCCC2)s1`, for which the “% Inhibition” value is reported as -4% and the Z score came out at 0.57.

For `O=C(O)c1ccc(NC(=O)c2cccc(N3C(=O)C4C5CCC(C5)C4C3=O)c2)cc1` (centres undefined), the “% Inhibition” value is reported as 5% and the Z score was -0.98.

On to `CCO[C@H]1CN(C)C[C@@H]1NC1Cc2ccccc2C1`, for which the “% Inhibition” value is given as 11% and the Z score was -1.44.

As for `Cc1ccc(-c2nc(NC(=O)c3ccccc3F)sc2NC(=O)c2ccco2)cc1`, the “% Inhibition” value was -19% and the Z score worked out at 2.6.

Regarding `CN(C)c1nc(N2CCC(c3cc[nH]n3)CC2)ncc1F`, the “% Inhibition” value was -10% and the Z score is given as 1.31.

Take `Nc1ncc(C(=O)NC[C@H]2CC23CCCCC3)s1`: the “% Inhibition” value was -6% and the Z score was determined as 1.21.
